# The source gives no read counts; variants with many changes may rest on few reads.
# B1: LINE1-mini (parent)
# chain: GGCAGAGCUCAACACAGCGUGGCAAAGUGGCUGUGGCUAGACUGCC
# Variants of: B1
# Assay: self-cleavage, relative activity (ratio to wild type); higher = more cleavage; in vitro, sequencing; the parent is a self-cleaving ribozyme
row,Variant,self-cleavage
1,U9G A12C C46U,0.02
2,A6G G21U C23U C37U,0.12
3,A24U G36A U43A,0.28
4,C3A A6U C10G C15A G19A U43C,0.03
5,G21U A24U G44U,0.68
6,G30C U32C G36A C37A,0.14
7,G17C G35C C45G,0.02
8,C3U A6G U9C A11U A39G,0.01
9,U9G G17C U32G G36C A41U,0.04
10,G7U G19A U20C,0.1
11,G1U C3U A11C A24C U28C C31G,0.02
12,G5C C8U G17A G27A,0.1
13,C15A G21U G40C,0.01
14,C13A U38A C42A,0.06
15,G2A A6U U34A G36U A41C,0.04
16,G7U C18A U28C,0.03
17,G2C A6U C10A A14U G30U,0.02
18,U20A C23A U34C A41G,0.07
19,G1A A6U A16U G33U G36A C37A,0.06
20,G1A A6G C18A A25U,0.03
21,U9A C15A A26C U28A,0.04
22,G2A A4U C15G,0.02
23,C3A U9A A14G G29A,0.24
24,A14U A25U G40C U43A,0.05

row,Variant,self-cleavage
1,G5C A39U C46G,0.04
2,A6U C8U A12U C23A C37A U43G,0
3,C8G A11U C15U,0.01
4,G2U C3G A6U G29U C46U,0.24
5,A6G C10A G19U G35A,0.02
6,C3G A12U C13U C15U G22A G40C,0.1
7,G1U A4C C18G C23U G29A C31U C42U,0.03
8,C3A A6G U9A A26G,0.09
9,C8A A11G C13U C42U C46A,0.04
10,A11U C18G G27A,0.05
11,G5C C15A C42A C46U,0
12,G7C G19U G29U,0.14
13,C8G A14C C23A A26C C42A,0.06
14,C8U U9G C10G G19A,0.04
15,C3A G22C U34G,0.1
16,G1U A14G A16U A39U,0.03
17,C10A A14U G22A G30U,0.35
18,A6G A16C C23U C42A G44U,0.02
19,G5A C10A A14U G17A G19A,0.03
20,U9A C18A G27C G29C C37A,0.18
21,G29U G36U C46A,0.1
22,C8A C18A C42G,0.14
23,G5C U9A C18G U20A A41C,0.04
24,A4G A6G C10A C45G,0

row,Variant,self-cleavage
1,A4U C13G C42G C46G,0.03
2,A14C G17U U20G U38C G44U C46A,0
3,C13U C18U G30U G36U G44C,0.12
4,G1A G2C G19A U32G G36U,0.02
5,G1U U9C G44C C46A,0
6,C3A G7A C10G G21U C23U G44A C45A,0
7,G22C G30C U38A,0.72
8,G1U C8A A14U G29U C46A,0.06
9,A6U C8G G36U G40U,0.07
10,G5A C13G G30A,0.13
11,A4G U20C A25C G27C U43A C45A,0.03
12,C13U U28A G40A,0.15
13,G17C G36U C46U,0.03
14,C18A G22A G27U,0.82
15,G1U U9G G27C G36C,0.23
16,C3U G30A C31G G36U,0.08
17,C15A G17U G29U,0.09
18,C3A A12G A16U,0.02
19,C8A G21U G30A C45U,0.47
20,C10G A24U A39U,0.24
21,C42U C45U C46A,0.03
22,G1U G5C U28G G30U G36C,0.02
23,C3A G5C A25U,0.19
24,A12U A14U G19U G21C U32G C45G,0

row,Variant,self-cleavage
1,C3G G5C A26C,0.07
2,G17A C18A G29C G33U C42U,0.06
3,A24G G29U G44A,0.52
4,G1A G7C A14C G17U,1.1
5,C10A A11C C15U U38G,0.01
6,U9A C10G A11C C31A G33A,0.01
7,G5A C8A A14G G40C A41G,0.14
8,A6C U28G G33U C37A,0.04
9,C18G U32G G33U,0.03
10,A4C A6U C15A U34A,0.11
11,G5A A6U C8U G21U G27U U38A G44A,0.01
12,C15G C23A C37G A39C,0.01
13,G5U U34C G36A,0.03
14,C3G A11C C42G G44C C46U,0.01
15,G5C A16U G17A,0.03
16,A4G C10U A11G,0.05
17,C8G C10U C13G,0
18,G17A U20G A39G,0.02
19,C8A A14C G27A C46G,0.07
20,G1U C23U G27C G30C C45A,0.95
21,A16C G22C A41C C45U,0
22,A6U G35U G36A,0.44
23,U20A G21U G30A C31A G36A,0.03
24,G2U A16U G17U,0.04

row,Variant,self-cleavage
1,A4G U20A G27U,0.57
2,C3G A12U C13U U20A,0.05
3,G2U A4U G36U,0.09
4,C10A G21A G30U,0.12
5,U20A A25C U32C,0.03
6,C3U G19C U43A,0.04
7,U28A G30U U34A U43A,0.04
8,G1U G19U U34C A39C,0
9,C10U G35U G40U,0.02
10,A11U G29A G35U,0.01
11,A11G C23G G44U C46G,0
12,A16C G19A U34A C37U G40U,0
13,A12U G35U G36A U38C,0.11
14,G1U G27U U28C G29A C45G,0.12
15,A4G A26U C45U,2.06
16,C10A G30C G33U,0.07
17,C3U C8U A12G C45A,0.12
18,C8G A14C A26C G30C C31G,0.03
19,A14C C18U A41U,0.11
20,C10G G19U C46A,0.05
21,G2A C3A C18U,1.92
22,G1U G2A U9C,0.02
23,A6G C8U U20A G40C,0.07
24,G5U A11G G33C,0.02

row,Variant,self-cleavage
1,A4U G27U U34A G36A,0.04
2,C8G G19C G22C A39C G40C U43C,0
3,G2A A16G C42A,0.07
4,C8G C42G U43A,0.02
5,G7A U9G A26C,0.26
6,G21A U28C C46A,0.15
7,A14C C31A C42U,0.1
8,C3U C13A A26U C31A,0.08
9,C10A A24U G33U,0
10,G7C A26G C31U,0.02
11,G1U G22C A24G,0.16
12,C3G C8G A14C G29U C37U,0.02
13,A4C A11G A12C G19A C23A A24G G30C U34C,0.01
14,A16G U43A C46U,0.15
15,G19A A25G A39U,1.37
16,C8A G35U U38A,0.1
17,G21U U28G A41U,0.28
18,G7A G19A U20C,0.07
19,A4G U28G C31U G33U U43G,0.08
20,C13A U20C C45G,0.06
21,G5C C13G U28C G40A,0.11
22,U28A G30U C37G,0.19
23,G2C A11C U20A C42U,0.02
24,G5U A16C C31G G35U C45U,0

row,Variant,self-cleavage
1,U9G C10G C46G,0.06
2,G1C G5U C10U A12C,0
3,A4G C8A G21C G22C G30C,0.12
4,G17C C18U G29C G30U G36C,0.03
5,A6G C15G G17U C18A U43A,0.01
6,C31G G33C A41U,0.04
7,A4G A14U G21U G35U,0.09
8,G1A A11U G29U G30C G40U,0.01
9,G7U G35U C37G,0.04
10,G22A G27U G33U G35U,0.08
11,A4U A6G G17U G19A U32C,0.01
12,G5A A6C C31A C42U,0.09
13,A6G C13A U32A C45G,0.05
14,C3A C15A C18A G36U,0.15
15,G29A U32C G33A,0.26
16,C23A G29A C45A,0.55
17,G17U U20A G35U G36A,0.07
18,A4C G5C A14C A26G,0.05
19,G22U G29U C31G,0.12
20,A4C C37U A41G,0.12
21,G27C C31U G44A C46G,0
22,G1C C13G C45A C46A,0.03
23,C10G A24C G40U,0.02

# Source: the RNAGym collection of RNA variant scans (doi:10.7554/elife.90254)
